The source gives no read counts; variants with many changes may rest on few reads.
B1: CPEB3 Ribozyme (parent)
chain: UAACAGGGGGCCACAGCAGAAGCGUUCACGUCGCAGCCCCUGUCAGAUUCUGGUGAAUCUGCGAAUUCUGCUGUAUAUCUC

Variants of: B1
Assay: self-cleavage, relative activity (ratio to wild type); higher = more cleavage; in vitro, sequencing
Summary of the method: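 Relative activity compares each variant's cleaved/total read fraction with that of the unmutated ribozyme. To get these fractions, barcoded CPEB3 ribozyme libraries from rounds of error-prone PCR were transcribed with T7 RNA polymerase for 5 hours at 37°C and then given 15 min of DNase I treatment before EDTA was added. The RNAs were reverse transcribed with template switching and sequenced on Illumina, and DNA sequencing linked barcodes to variants. A minimum of 5 reads applied, and three batches were averaged.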

Row | Variant | self-cleavage
1 | A3G C39U U60C | 0.22
2 | A3G C40U A56U U72A | 0.16
3 | A3G C44U U58C | 0.25
4 | A3G C62U G70U | 0.25
5 | A3G C71U G73A | 1.36
6 | A3G G6A A18U U67C | 0.28
7 | A3G G6A A21U C32U U72A U80A | 0.37
8 | A3G G6A A35G U78C | 0.59
9 | A3G G6A U31A C32U U67C A75G C81G | 0.05
10 | A3G G6U A56G | 0.24
11 | A3G G6U A57U | 0.35
12 | A3G G7A A21G A35U | 0.28
13 | A3G G7A A21G U25C U26C U78C | 0.08
14 | A3G G7A G9A U54C | 0.16
15 | A3G G7A U25G U54A U80C | 0.06
16 | A3G G7C A13G C14A A28C U72A | 0.06
17 | A3G G7C C23G U25C U54G A77G U80G | 0.05
18 | A3G G7C U26C C32U U49A U58C U69C | 0.06
19 | A3G G7C U31C A35U U76A A77U | 0.07
20 | A3G G7U A20G A28U G70U | 0.29
21 | A3G G7U A64G U80A | 0.47
22 | A3G G8A A21G A57G C81U | 0.09
23 | A3G G8A A47C | 0.06
24 | A3G G8A G30A | 0.27

Row | Variant | self-cleavage
25 | A3G G8A G30A A56U A57G U72C | 0.09
26 | A3G G8A U25C G36U U58A C62U | 0.06
27 | A3G G8A U41A A56G | 0.21
28 | A3G G8A U49C A57C A64G U74C | 0.06
29 | A3G G8A U60A | 0.37
30 | A3G G8A U69G A77G | 0.1
31 | A3G G8C A28U U78A | 0.08
32 | A3G G8C G22A C50G A57G | 0.05
33 | A3G G8U A21G U41A A75U U80C | 0.06
34 | A3G G8U G36A U60A A64U | 0.05
35 | A3G G9A A15U G70U | 0.08
36 | A3G G9A A28G A56G A65G | 0.1
37 | A3G G9A C14U U26C | 0.09
38 | A3G G9A C17U U60C | 0.1
39 | A3G G9A C23U A65G | 0.19
40 | A3G G9A U67C C71A C79U | 0.03
41 | A3G G9U A35U U74C | 0.52
42 | A3G G9U C40U U54A A56G U69C | 0.21
43 | A3G G10A A15G A20G C50A A64G | 0.12
44 | A3G G10A A35G | 1.09
45 | A3G G10A A35G U43G A77G U78C | 0.11
46 | A3G G10A C11A U26C A45G U72C U80C | 0.06
47 | A3G G10A C32U U78A | 0.18
48 | A3G G10A C37U A45G U72A | 0.28

Row | Variant | self-cleavage
49 | A3G G10A U25C A28U U60A C68A C71U | 0.05
50 | A3G G10A U26C U51A U60C | 0.25
51 | A3G G10A U49A U72C | 0.08
52 | A3G G10C A15U C23G U67C U74G | 0.07
53 | A3G G10C A20C U51A A56G | 0.52
54 | A3G G10C A28G U41A G55U U58C U60A | 0.08
55 | A3G G10U A20G U25C U80A | 0.08
56 | A3G G16C A28G U48C | 0.37
57 | A3G G16C A75U U78C | 0.65
58 | A3G G16C G63C | 0.41
59 | A3G G16C U69A A75U U78C | 0.4
60 | A3G G19A U26C A65G U69C U72A | 0.06
61 | A3G G19C G30U A64G | 0.08
62 | A3G G19C U48C U54A U69C | 0.23
63 | A3G G19U U72C | 0.43
64 | A3G G22C G52C | 0.34
65 | A3G G24A A56C | 0.1
66 | A3G G24A A65G | 0.29
67 | A3G G24A U26A U54C G73A | 0.12
68 | A3G G24A U41A U67A | 0.12
69 | A3G G24A U51C | 0.12
70 | A3G G24C A28G U31C U49C | 0.53
71 | A3G G24U U31A U43C A45G U49C U54C | 0.13
72 | A3G G30A U48A | 0.51

Row | Variant | self-cleavage
73 | A3G G33A C71A | 0.2
74 | A3G G33U U49C | 0.24
75 | A3G G36A A47G | 0.19
76 | A3G G36C A57C U60C | 0.19
77 | A3G G46U A64G A65G | 0.52
78 | A3G G52C U60C C71U | 0.64
79 | A3G G61C U69C U74C A75G | 0.25
80 | A3G G63A U72C | 0.53
81 | A3G U25A C34U A45G U67A C68U U72A | 0
82 | A3G U25A C40A U51C U69C | 0.1
83 | A3G U25A U67C | 0.32
84 | A3G U25C A64U | 0.18
85 | A3G U25C C29G A35G G73U U78A | 0.64
86 | A3G U25C G30A A45G U49A A65U U66C | 0.13
87 | A3G U25C G30U U67C C68G | 0.08
88 | A3G U25C G63U | 0.56
89 | A3G U25C U31C U60C C62U | 0.06
90 | A3G U25C U41C A64U | 0.38
91 | A3G U25C U41C U74C U78C | 0.76
92 | A3G U25C U48C U51A | 0.04
93 | A3G U25C U48G | 0.62
94 | A3G U25C U54A U72A U80C | 0.15
95 | A3G U25C U58A C71G | 0.13
96 | A3G U25G A57G U72A U76A | 0.06

Row | Variant | self-cleavage
97 | A3G U25G A65G U72C | 0.5
98 | A3G U25G A65G U80A | 0.18
99 | A3G U25G U31C G36U C62U | 0.28
100 | A3G U26A A28G | 0.42
101 | A3G U26A G30C U49C | 0.3
102 | A3G U26A G46U A77G | 0.37
103 | A3G U26A U41A U51A U67C | 0.14
104 | A3G U26A U49C A77C | 0.32
105 | A3G U26A U60A A64G U74C | 0.35
106 | A3G U26C A28G A45G U60C U78A | 0.79
107 | A3G U26C A28U U69A | 0.28
108 | A3G U26C A35U A64G C68A U69G | 0.3
109 | A3G U26C A57U U58C | 0.14
110 | A3G U26C G46U U49C U72A U80C | 0.08
111 | A3G U26C G52U A56G G63U | 0.76
112 | A3G U26C G55C | 0.47
113 | A3G U26C U41G G70A U80C | 0.29
114 | A3G U26C U51A U60C | 0.33
115 | A3G U26C U54C | 0.42
116 | A3G U26G U51A U58G | 0.07
117 | A3G U31A A35U A45G U60G | 0.16
118 | A3G U31A A45G A64G | 0.38
119 | A3G U31A C38U U69G | 0.08
120 | A3G U31A C50G A57G A65U | 0.22

Row | Variant | self-cleavage
121 | A3G U31A U41A U60C U67C U74C | 0.19
122 | A3G U31A U43G A45G | 0.49
123 | A3G U31C G33A U60C U74G | 0.07
124 | A3G U31C U41A G53U | 0.47
125 | A3G U31C U43C G46A | 0.4
126 | A3G U31C U51A | 0.86
127 | A3G U31C U51G U74C | 1.04
128 | A3G U31C U54C | 0.9
129 | A3G U31C U58A | 0.45
130 | A3G U31C U58C | 0.47
131 | A3G U31C U60A | 0.38
132 | A3G U31C U72A | 1.11
133 | A3G U31C U74A A75G | 0.91
134 | A3G U41A A45G U60C A75C | 0.44
135 | A3G U41A A47U U80C | 0.36
136 | A3G U41A A64U U74G U76A | 0.16
137 | A3G U41A U48C U66C | 0.1
138 | A3G U41A U49C U67A | 0.1
139 | A3G U41A U76C | 0.63
140 | A3G U41C A57G | 1.03
141 | A3G U41C U43A A45G A65G U74A U78C | 0.11
142 | A3G U41C U48C | 0.47
143 | A3G U41C U49C U67C | 0.17
144 | A3G U41C U51G | 0.99

Row | Variant | self-cleavage
145 | A3G U41C U60A A65G A77U | 0.45
146 | A3G U41G U49C U67C | 0.24
147 | A3G U41G U54C U67C | 0.16
148 | A3G U43A G46U U51G A75U | 0.26
149 | A3G U43A U48C A57G | 1.02
150 | A3G U43C U48C A64U C68A | 0.04
151 | A3G U43C U54A A57U U58A | 0.15
152 | A3G U48C A56G U80C | 0.41
153 | A3G U48C C81U | 0.7
154 | A3G U48C G63U U74A | 0.95
155 | A3G U48C U51A | 0.27
156 | A3G U48C U51A A56G U67A G73A U74C | 0.09
157 | A3G U49C U54A | 0.43
158 | A3G U51A A56G A64U U69A | 0.16
159 | A3G U51A A75G | 0.65
160 | A3G U51A G52C | 1.12
161 | A3G U51A U67A | 0.55
162 | A3G U51C A75G | 0.98
163 | A3G U51C G55A | 0.61
164 | A3G U51C U60C | 0.33
165 | A3G U54A A64G U66A | 0.29
166 | A3G U54C U60A A64U | 0.19
167 | A3G U54C U60C | 0.48
